Source: PubChem BioAssay AID1656 (Sanford-Burnham Center for Chemical Genomics, 2009)
Hit rate of the full screen: of about 240,000 compounds, about 950 (0.4%) were called active. This list was built around the results that the source calls inconclusive (neither active nor inactive); the mix of calls is not that of the screen.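 How the source made its calls: active means lipid droplet intensity inhibited by at least 50%, with more than 500 cells counted; inconclusive means wells with under 300 cells, treated as cytotoxic; inactive means the rest.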

experiment: inhibitors of hepatocyte lipid droplet formation, primary screen, imaging, high-throughput imaging, BODIPY stain (AID 1656); settings: AML12 mouse hepatocytes, oleate lipid droplets, at 6.5 µM, hits give high values
In short: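 Technique: fluorescence imaging, 20x objective, two fields per well / Assay system: AML12 hepatocytes (mouse) / Measure: % inhibition of lipid droplet signal / Doses: 6.5 µM single-point dosing / Incubation: overnight exposure / Reagent: 100 µM oleic acid challenge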

Row | Structure (SMILES) | inhibition
1 | COc1ccc(C(=O)c2cc([N+](=O)[O-])ccc2N2CCOCC2)cc1 | inconclusive: -198%
2 | O=C1CSC(c2ccc(F)cc2)N1c1ccccc1F (configuration not stated) | inconclusive: 132%
3 | O=C(NC(=S)Nc1ccccn1)c1ccc(-c2ccccc2)cc1 | active: 94%
4 | CNC(=S)N(CCc1c(C)[nH]c2ccc(Cl)cc12)Cc1cccs1 | inactive: -10.7%
5 | O=C(c1ccc(S(=O)(=O)N2CCCCCC2)cc1)N(c1ccccn1)C1CCCCC1 | inactive: 5.7%
6 | Cc1ccc(C)c(-n2c3nc(=O)[nH]c(=O)c-3cc3cc([N+](=O)[O-])ccc32)c1 | inconclusive: -38.1%
7 | CCOc1cc(N2CCOCC2)c(OCC)cc1NC(=O)c1ccccc1C | inactive: -10.3%
8 | CN(C)S(=O)(=O)c1ccc(C(=O)Nc2nnc(SCc3ccccc3)s2)cc1 | inconclusive: -33.3%
9 | COc1cc(C(=O)N2CCN(c3cccc(C)c3C)CC2)cc(OC)c1OC | inconclusive: -304%
10 | CCOC(=O)c1c(C)[nH]c(C(=O)N/N=C/c2ccc(Br)cc2)c1C | inconclusive: -235%
11 | O=C(OCn1ncc(Br)c(Br)c1=O)c1ccc(F)cc1 | inactive: -10.1%
12 | Cc1ccc(S(=O)(=O)N2CCC(=O)N(CCOC(=O)NCc3ccccc3)CC2)cc1 | inactive: -3.3%
13 | O=C(NC(=S)NCc1ccccc1)c1ccccc1 | inactive: -5.9%
14 | N#Cc1c(NC(=O)/C=C/c2ccco2)sc2c1CCCC2 | inconclusive: -370%
15 | O=C(c1ccc(COc2ccccc2Cl)o1)N1CCN(Cc2ccc3c(c2)OCO3)CC1 | inactive: -19.7%
16 | Cc1ccc(C(=O)N2CCN(S(=O)(=O)N3CCCCC3)CC2)cc1 | inconclusive: -90.6%
17 | COc1ccc(C2=NOC(C(=O)NCc3ccc(F)cc3)C2)cc1OC (configuration not stated) | inconclusive: -112%
18 | COc1cc(OC)c(NC2=CC(=O)C(=O)c3ccccc32)cc1Cl | inactive: 15.2%
19 | O=C(NCCN1CCN(c2ccc([N+](=O)[O-])cc2)CC1)NCc1ccccc1 | inactive: -8.8%

Row | Structure (SMILES) | inhibition
20 | Cc1ccc(NCc2cccnc2)cc1 | inconclusive: 122%
21 | O=C(OCCN1C(=O)c2cccc3c(N4CCOCC4)ccc(c23)C1=O)c1ccc(Cl)cc1 | inconclusive: -49.5%
22 | CCCC1(c2ccccc2)NC(=O)N(CC(=O)Nc2ccccc2C(F)(F)F)C1=O (configuration not stated) | inactive: -2.8%
23 | CCN1/C(=C/C=C/c2oc3ccc(-c4ccccc4)cc3[n+]2CC)Oc2ccc(-c3ccccc3)cc21 | active: 120%
24 | COC(=O)c1c(NC(=O)CCl)sc(C(=O)N2CCOCC2)c1C | inactive: -5.5%
25 | Cc1c(C(=O)OCc2ccccc2)[nH]c2c1C(=O)CC(c1ccco1)C2 (configuration not stated) | inconclusive: -93%
26 | Cc1c(Cc2ccccc2)sc(/N=C/c2ccc3ccccc3c2)c1C(N)=O | inconclusive: -180%
27 | CN(C)CCN(C(=O)c1ccc(S(=O)(=O)N2CCCC2)cc1)c1nc2ccc(Br)cc2s1 | inactive: -6.4%
28 | O=C(Nc1nncs1)c1cc(S(=O)(=O)N2CCOCC2)ccc1Cl | inactive: 6.7%
29 | CCOc1ccc(C(=O)OCC(=O)Nc2cc(C)on2)cc1OCC | active: 80.3%
30 | O=C(Cc1coc2ccc3ccccc3c12)NC1CCCc2ccccc21 (configuration not stated) | active: 51.9%
31 | Cc1ccc(NC(=O)CCCc2c[nH]c3ccccc23)nc1 | active: 82.6%
32 | CN(C)S(=O)(=O)c1ccc(N2CCCC2)c(C(=O)Nc2nc(-c3ccc(F)cc3)cs2)c1 | inconclusive: 36.5%
33 | CCOC(=O)C1=C(N)N2C(=O)C(C)SC2=C(C(=O)OCC)C1c1ccccc1 (configuration not stated) | inactive: -15.5%
34 | Cc1ccc(N(C(=O)CCl)C(C(=O)NC2CCCCC2)c2cccnc2)cc1C (configuration not stated) | inconclusive: 121%
35 | O=C(NCCc1nc2ccccc2[nH]1)c1ccc(Br)o1 | active: 51.2%
36 | COC(=O)c1cc(C(=O)N2CCN(c3cccc(Cl)c3)CC2)cc([N+](=O)[O-])c1 | inconclusive: -139%
37 | CCOC(=O)C(=NC(C)CC)NNc1ccc(Br)cc1 (configuration not stated) | inconclusive: -28.4%
38 | CCC(=O)N1N=C(c2cccc(NS(C)(=O)=O)c2)CC1c1cccs1 (configuration not stated) | inconclusive: -35.2%

Row | Structure (SMILES) | inhibition
39 | CC[n+]1c(/C=C/c2ccc(OC(C)=O)c(OC)c2)ccc2ccccc21 | inactive: -5.6%
40 | O=C(CCl)N=c1sccn1Cc1ccccc1Cl | inconclusive: -144%
41 | CC(C)c1ccc(C2C3=C(COC3=O)Nc3cc4c(cc32)OCO4)cc1 (configuration not stated) | inconclusive: -273%
42 | CC(C)Oc1ccc(C(=O)OC(C)C(=O)NC2CCCCC2C)cc1 (configuration not stated) | active: 51.6%
43 | Cc1cc2cc(CCNC(=O)c3cccc([N+](=O)[O-])c3)c(=O)[nH]c2cc1C | inconclusive: -19.8%
44 | O=c1cc(-c2ccccc2)[nH]c2ccc(F)cc12 | inconclusive: -250%
45 | O=C(CNCCC1=CCCCC1)Nc1ccccc1N1CCCCC1 | active: 103%
46 | Cc1ccc(C(=O)Sc2cccccc2=O)cc1 | inconclusive: -119%
47 | CC1CN(c2ccc(C(F)(F)F)cc2[N+](=O)[O-])CCN1S(C)(=O)=O (configuration not stated) | inconclusive: -14.9%
48 | CCOc1ccc(C(=O)Nc2ccc(NC(=S)NC(=O)CC)cc2)cc1Cl | active: 50%
49 | CCOC(=O)N1CCC(N2CCCC(C(=O)c3ccccc3OC)C2)CC1 (configuration not stated) | inactive: -1.6%
50 | O=C(NCc1ccco1)c1ccc(Cn2c(=O)c3ccccc3n(Cc3ccc(Cl)cc3)c2=O)cc1 | active: 55.9%
51 | O=C1c2ccccc2C(O)(Cc2ccccc2)N1c1ccc2c(c1)OCO2 (configuration not stated) | inactive: -11.6%
52 | COc1ccccc1NC(=O)c1cnc(Nc2ccccc2OC)c2ccccc12 | inconclusive: -115%
53 | COc1ccccc1NC(=S)N(Cc1ccco1)Cc1cc2ccc(C)c(C)c2[nH]c1=O | inconclusive: -144%
54 | O=C1c2ccccc2C2=Nc3ccccc3SC(c3cccc(F)c3)C12 (configuration not stated) | active: 65.6%
55 | CC(=O)c1c(C)n([O-])c2cc(F)c(F)cc2[n+]1=O | inconclusive: -174%
56 | O=C(NC1CCCCC1)c1cc(-c2cccc(Cl)c2)on1 | inactive: -1.6%
57 | COc1ccc(-n2c(SCc3ccc([N+](=O)[O-])cc3)nnc2-c2ccccc2)cc1 | inconclusive: -12.1%
